Measured values reported in article PMC12136788.
The list shows a part of the results.

B1: chr11:29607782:29607783:+_ENSMUSG00000020458_ENSMUST00000102843|mus_mus|motif|central (ssRNA)
RNA: GGGAGUUCUACAGUCCGACGAUCUGCAUUAAAACUUUCAGGCUCUUUAAUUUCUUCCUUUGAGUCCGAUGUUUUUAGUGCGGCACUCAUGGCUUCUUCAUAUGGUGGGGGAUUUUCAGGCUCAAGCUUUAUACCGUCAUAACUCAACAGAGGAUUGAGCAUCA
B2: 66753787_66753907_340_3pUTR_ENSG00000205268_ENST00000401827|human|control|control (ssRNA)
RNA: GGGAGUUCUACAGUCCGACGAUCGCCGCCGGCCCCUGCAGUGGGAGGGGGCCGCGGCUCGGGGGCUCCGGGCCGAGACGGGGGCAGGGCGGGCGGGGACCGACCCCGGGCUGGGAAGCCGCGCUCACGCCUCCCCAACCCCAGCAACAGAGGAUUGAGCAUCA
B3: chr4:134026413:134026414:+_ENSMUSG00000028832_ENSMUST00000130253|mus_mus|motif|central (ssRNA)
RNA: GGGAGUUCUACAGUCCGACGAUCUACAAAUCAAAAGAAAUCAAGUAACAUUUUUUUUUUAAAAAGCUUAACAUUUUGGACGGACAAAUACCAUCUUGAGGAAUUAGUACUUGACAGUCACUCCCUAGGAAACAAAGAAUGGUGCAACAGAGGAUUGAGCAUCA
B4: chr1:151039735:151039736:+_ENSG00000213190_ENST00000368921|hu_hu|FALSE|FALSE (ssRNA)
RNA: GGGAGUUCUACAGUCCGACGAUCCCCAGGCCUUCCAGCUCCGACAGAUCCAGUUCUGGGAUGGGCAUCCUCCAGAAAAGAAAGGAACUGUACUGGCUACUCACAGGGUCCCUCAUAGCUUCCUGUUAUCAAUCAAUUACUGGCCAACAGAGGAUUGAGCAUCA
B5: chr1:163122374:163122375:-_ENSG00000143248_ENST00000313961|hu_hu|FALSE|FALSE (ssRNA)
RNA: GGGAGUUCUACAGUCCGACGAUCAGUGAAGUGGUCAAUAUUCACCUCUUUAGGAGCCUCCGUUUGAAUGAAUUCUUCAUAAAUUUGCUUUGCCUUCUCAGCCAUCUUGGCAGGGGACUUGAUCUUCUUGUAAUCCUCACAGGCCAACAGAGGAUUGAGCAUCA
B6: chr17:64801638:64801639:+_ENSG00000154229_ENST00000413366|hu_mus|hu_hu_hu_mus_False|88_98 (ssRNA)
RNA: GGGAGUUCUACAGUCCGACGAUCUAUAUAUAUAUAUAUAUACACACACAUAUGUAGUAAAACCCUAGUUAAACGUGUAAAGUAGCCAUUCAUUUUUAAAAUUACAUCUACAUUAAAAAAUUAAUAUAUCUGAUAGAGUGCCAGCAACAGAGGAUUGAGCAUCA
B7: 119990608_119994092_1138_CDS_ENSMUSG00000061306_ENSMUST00000103018|mouse|control|control (ssRNA)
RNA: GGGAGUUCUACAGUCCGACGAUCAAAGGUUCCAUCUUUUUGCUGCUGCUCAAACAGCAGUGUGUUCAAGGCCUGCCUGCACGGCAGAAUCAUCAUGGGGAAGCCCACAGCCACAGACAUCACGAAGCCCACUCGGAUCAUCUCCAACAGAGGAUUGAGCAUCA
B8: chr17:65740002:65740003:+_ENSG00000130935_ENST00000581375|hu_hu|hu_hu_hu_mus_False|8_58 (ssRNA)
RNA: GGGAGUUCUACAGUCCGACGAUCAACAAAUCUUUCUUCCCUGGACGAACAGGAAGAUUCAUAUUAAAAAAAAUAUAUGUCUAUGAAGUUAGGUGUGGUGGCCACACCUUUACUCCCAGCACUUUGGGAAUAUAAUCUCUGAGUCAACAGAGGAUUGAGCAUCA
B9: chr14:78183846:78183847:+_ENSG00000119705_ENST00000557342|hu_hu|hu_hu_hu_mus_False|8_108 (ssRNA)
RNA: GGGAGUUCUACAGUCCGACGAUCUCUGUCUCAAAAAUCUUCAUCAGAUGUUUGAGCUCCGUGCAAAGCCUUUGCUCUUUGAGCUUGAACGUGGAUCUAUGGGAGGGAAAGCACUGUCAGAAAAGGUUGUAGUGCAUUUAAAGACAACAGAGGAUUGAGCAUCA
B10: chr4:144460044:144460045:+_ENSG00000153147_ENST00000283131|hu_mus|hu_hu_hu_mus_False|58_98 (ssRNA)
RNA: GGGAGUUCUACAGUCCGACGAUCACGGUCCAUAGCCUGAAGAUCUACUUGCGGAUUCCAAUCUGAGUCAUAUAAAAUUACUACAUCAGCAGUUGCAAGAUUGAUGCCCAGACCACCAGCACGUGUGCUUAGCAUAAAUACAAACAACAGAGGAUUGAGCAUCA
B11: chr1:115276673:115276674:-_ENSG00000009307_ENST00000339438|perfect_dup|motif|central (ssRNA)
RNA: GGGAGUUCUACAGUCCGACGAUCUGUGAAUUCCACGUCAUCUCCAGGCUGUAGGGUUUCUAGGUCACCUUUAAAUUCACGGUAGUGAAAGAAUAUCUCUUUUACAACAUCACCUCUUUCGAUAAAGCCAAACGCCUCCUUCAUCAACAGAGGAUUGAGCAUCA
B12: chr14:78183846:78183847:+_ENSG00000119705_ENST00000557342|hu_hu|hu_hu_hu_mus_False|38_48 (ssRNA)
RNA: GGGAGUUCUACAGUCCGACGAUCUCUCAGAAAUCUUUCUUCAUCAGAUGUUUGAGCUCCGUGCAAAGCCUUUGCUCUUUGAGCUUGAACCUGGACCUUUACUCCAUAAAGCACUGUCAGAAAAGGUAAUUUUUUUUUUAAAGACAACAGAGGAUUGAGCAUCA
B13: chr10:19624517:19624518:-_ENSMUSG00000020003_ENSMUST00000020182|mus_mus|motif|central (ssRNA)
RNA: GGGAGUUCUACAGUCCGACGAUCCUCAUUGUUUUCACUCCAGGUAACGUCAAACAAGCCGUCAUUCCAGUCAAAGCUUCGGAAAAUCUGAAGUCCAGAUUCAUUUUGAUCCAAUACUAAUAGAGUUCCACAGCCCGCGAUGCCCAACAGAGGAUUGAGCAUCA
B14: 56591734_56591854_1769_CDS_ENSG00000188021_ENST00000338222|human|control|control (ssRNA)
RNA: GGGAGUUCUACAGUCCGACGAUCUAUGGGCCCAAUGGGGCCUAUGGGGGUAAAAGGGACUAUAGGGCCUAUGGGGCCUAUGGGGGUGACUGGGCCUACAGGGCCUAUAGCGGUUCCCAGCACCCCCACCCCCACACCUGGAGUCAACAGAGGAUUGAGCAUCA

Biological target: T1, UNK ZnF1-3 (human, UniProt Q9C0B0 31-174)
T1 sequence: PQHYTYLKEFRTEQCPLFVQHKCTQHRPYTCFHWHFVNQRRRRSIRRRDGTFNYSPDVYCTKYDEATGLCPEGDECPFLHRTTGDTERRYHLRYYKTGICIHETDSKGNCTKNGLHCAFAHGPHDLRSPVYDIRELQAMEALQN
Test: nsRBNS (natural sequence RNA bind-n-seq); RBNS binding buffer (assumed for nsRBNS): 25 mM Tris pH 7.5, 150 mM KCl, 3 mM MgCl2, 0.01% Triton X-100, 500 ug/ml BSA, 20 U/ml SUPERase-In, 4 C; UNK is unkempt and MSI1 is Musashi-1; names of the RNAs are library labels; protein concentration not given here; high values mean tight binding

Row | Binder | binding signal
1 | B1 | 0.58 enrichment R
2 | B2 | 0.68 enrichment R
3 | B3 | 1.5 enrichment R
4 | B4 | 1.51 enrichment R
5 | B5 | 1.02 enrichment R
6 | B6 | 1.74 enrichment R
7 | B7 | 0.463 enrichment R
8 | B8 | 1.12 enrichment R
9 | B9 | 1.34 enrichment R
10 | B10 | 1.36 enrichment R
11 | B11 | 1.2 enrichment R
12 | B12 | 0.664 enrichment R
13 | B13 | 0.74 enrichment R
14 | B14 | 0.573 enrichment R
